Source: the RNAGym collection of RNA variant scans (doi:10.1093/nar/gkz1192)
Read counts are not given, so values of variants with three or more changes are uncertain.

B1: CPEB3 Ribozyme (parent)
chain: UAACAGGGGGCCACAGCAGAAGCGUUCACGUCGCAGCCCCUGUCAGAUUCUGGUGAAUCUGCGAAUUCUGCUGUAUAUCUC

Variants of: B1
Experiment: self-cleavage, relative activity (ratio to wild type); higher = more cleavage; in vitro, sequencing
Procedure, shortened: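 CPEB3 self-cleaving ribozyme mutant libraries were made by rounds of error-prone PCR, barcoded, and transcribed in vitro with T7 RNA polymerase for 5 hours at 37°C. Cleavage occurred during transcription and a 15 min DNase I step before EDTA stop. RNAs were reverse transcribed with template switching and Illumina-sequenced, with DNA sequencing mapping barcodes to variants. Relative activity is the variant's cleaved/total read fraction divided by wild type's (minimum 5 reads), averaged across three batches.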

Variant	self-cleavage
A15U U48C A57G U69A U80C	0.38
A15U U48C U51A	0.49
A15U U51G A65U A75G	0.23
A15U U51G G61U U67C U78C	0.08
A15U U54C A56G U58C A64U U72C U80C	0.11
A15U U54C A64U U78C	0.14
A15U U54C U76C	0.68
A15U U54G U58C U78C	0.08
A15U U58C A64G	0.19
A15U U58G A77G C81A	0.21
A15U U60A U67C	0.1
A15U U60A U69C	0.11
A15U U60G U72A	0.27
A15U U67A U80C	0.5
A15U U67C U69A	0.1
A15U U69A U74C A77C	0.42
A15U U74C U80A	1.26
A15U U76C U80A	0.72
G16A A18G A28G	0.08
G16A A18G A56U U80C	0.21
G16A A18U A20U U31C A35U	0.05
G16A A18U A28G A57U U67C	0.06
G16A A20C A64G	0.07
G16A A20G C27U U69A U76C	0.02

Variant	self-cleavage
G16A A20G U49A U78C	0.12
G16A A21G C32A	0.25
G16A A21G C39U	0.17
G16A A21G U43A U72A	0.2
G16A A21G U60A	0.15
G16A A28G C32U U43C	0.21
G16A A28G U48C U80C	0.05
G16A A28U G33C	0.06
G16A A35G A45U	0.24
G16A A35U U51C G52U U58C U80C	0.1
G16A A45U A65U	0.37
G16A A56G U67C	0.09
G16A A56U G70C	0.11
G16A C23A U25C A35G A47U	0.03
G16A C23G U54C A56G G70A	0.06
G16A C37G C68U	0.21
G16A C37U A56G A64U U74C	0.15
G16A C50U A57G G70U U78A	0.08
G16A G19C A20G U43C U58G U80C	0.19
G16A G22U U41A U72C	0.12
G16A G46C C59U	0.07
G16A U26A A47G U51A	0.13
G16A U26C U78C	0.2
G16A U31A C38G U69A	0.16

Variant	self-cleavage
G16A U31A C38U A47U U51G U66C	0.05
G16A U31C U43A U80C	0.64
G16A U31C U48A U54C U78C	0.13
G16A U41A G46A U51C U72C	0.1
G16A U43C A65U U72A	0.38
G16A U43C U54A	0.13
G16A U48C U49C C50G U74C	0
G16A U48C U80A	0.42
G16A U49A A65G U67A	0.31
G16A U49C U58C	0.1
G16A U54C A56G	0.37
G16A U54C U58G U76C U80C	0.12
G16C A18U G46U U72C	0.28
G16C A20U U31A G42U U49C U74C	0.09
G16C A21G U41C A45G G70A U80C	0.08
G16C A21U U51A	0.16
G16C A28C U67C U74C	0.08
G16C A35G A47G U74C U78C	1.03
G16C A45G U60C G63A	0.21
G16C U25A U49C	0.11
G16C U41A A65U U80C	0.14
G16C U69A U76A	0.06
G16U A28G U54A U58C U66C G70A	0.05
G16U A28U A56G U69C	0.14

Variant	self-cleavage
G16U A35G U69C U78A	0.37
G16U C23U U26C U41C U72C	0.08
G16U C29U U41C U74C	0.32
G16U C37G U54C U67C	0.07
G16U G30U U51C A57G U58C	0.05
G16U G36U U72C	0.09
G16U U25A A45G U54A	0.21
G16U U25C U66C U72A	0.06
G16U U25C U69C U72A U78C U80C	0
G16U U41A U51C U72C	0.34
G16U U41A U58A	0.19
G16U U41C A45G G52A A65G U69G	0.16
G16U U43A U48C A75G	0.25
G16U U43C U58C U67C U72C	0.06
G16U U49C C50U A56U U74A U76C	0.16
G16U U58C A77U	0.22
C17A A18G A21G U31C U43C	0.04
C17A A18G U54A	0.38
C17A A18U G55C	0.13
C17A A20G U31C A56U	0.19
C17A A21G U25C A28G U74A	0.48
C17A A28U A35G U69C U74C	0.16
C17A A35U U69G	0.11
C17A A47G U54A A56G U66C	0.08

Variant	self-cleavage
C17A A56U U72G U80C	0.26
C17A A56U U80C	0.18
C17A G63A U72C U78C	0.06
C17A U25A U26C A57G U66A	0.05
C17A U25C C79A	0.06
C17A U25C U41C U51C U54A	0.24
C17A U25C U43C A56G A65U U76A	0.05
C17A U31A U78C	0.31
C17A U43C U49C U54C A56U	0.15
C17G A18G A21G A35U	0.28
C17G A21G U25C A45G U74A	0.05
C17G A21U A35G	0.61
C17G A28C G33U U41A U72G U80A	0.05
C17G A45G A65U	0.29
C17G A47G A65G U69C	0.25
C17G A47G U51C U58C	0.23
C17G A47G U69C U78C	0.04
C17G C40G G73U	0.25
C17G G24A U26A C32A U78A	0.06
C17G G33A C39A	0.31
C17G G33A U72C	0.36
C17G U26A U51C U60C	0.06
C17G U26C A47G A64G	0.09
C17G U26C U31A U58A	0.19

Variant	self-cleavage
C17G U26C U31G U58C A75G	0.03
C17G U31C U67C	0.14
C17G U31G U41A	0.26
C17G U54C C59U	0.34
C17G U72C U80C	0.78
C17U A18G C29A C34U U72A U76C U80A	0.05
C17U A18U G33A A47C A65U U67C U80C	0.05
C17U A18U U51G	0.38
C17U A20C A64G U69C	0.14
C17U A20G A21U	0.34
C17U A20U U25C U67C U80A	0.02
C17U A21G A28G U31C U78C U80C	0.1
C17U A21G U31G A47C U49C A64G U76C	0.11
C17U A21G U41C A56G A75U	0.13
C17U A28G A64G	0.13
C17U A35G U41A A45G A47G U58A A75G	0.05
C17U A45G A47G U67A A77G	0.06
C17U A45U A65G	0.12
C17U A45U U67A	0.16
C17U A56G G61A A65G	0.09
C17U A56G U80C	0.91
C17U C62U U67C	0.13
C17U C62U U72C	0.11
C17U G19A U25A U41C U54G	0.07

Variant	self-cleavage
C17U G24A U51C U69C	0.06
C17U G24C A28G U43C U80A	0.08
C17U G24C A28U U51A	0.12
C17U G36U A56U U72C	0.09
C17U U25C C29U U31G U41C U51A U66G	0.05
C17U U25C C68U	0.42
C17U U26A U31A C32U A57U U58C U60C	0.03
C17U U26A U43C A47U U51A C62U	0.05
C17U U26A U80A	0.62
C17U U31C U41A A64C U80C	0.18
C17U U41A U48C U80A	0.06
C17U U41A U54A	0.16
C17U U41C A65U	0.16
C17U U41C U49C A65G U69G	0.08
C17U U43A G53U U74A U78C	1.28
C17U U49C U76C U78C	0.19
C17U U58C A64G U66C G73U	0.17
A18C A20G C27G U76C	0.17
A18C A20G U31C U72A	0.26
A18C A20U U43C U48C G70A	0.05
A18C A21G G24A U43C	0.06
A18C A28G A47G A57G U66C U78C	0.1
A18C A28G C40A U41C U43C U60C A65G	0.4
